Assay results as given in patent US5473056, “E2F-2, a novel mammalian transcription factor” (Merck & Co., Inc., dated 1995).

Target: recombinant pRb60 (Homo sapiens (Human), UniProt P06400)
Test: co-immunoprecipitation with anti-pRb monoclonal antibody, anti-GST Western blot
Method: For pRb60 binding assays, 50 µl of normalized lysates were incubated with or without 0.6 µg purified pRb60 in a final volume of 100 µl phosphate-buffered saline-0.1% NP40 for 1.5 hr at 4° C. Where indicated, partially purified GST-E1A was also included in the binding reaction as a competitor. The pRb60 and any associated proteins were then recovered using monoclonal anti-pRb antibody XZ55 (prepared as descibed in G. Hu et al., *Mol. Cell. Biol.*, 11:5792–5799 (1991)), followed by rabbit anti-mouse IgG (Cappel) and Protein A-Sepharose beads (Pharmacia). The beads were washed three times in cold phosphate-buffered saline, and bound proteins were eluted by boiling in SDS-gel loading buffer. Proteins were resolved on a 12% SDS-polyacrylamide gel (Novex), and GST fusion proteins were detected by immunoblot analysis using anti-GST antibody.
Figures 7A, 7B: FIG. 7. Binding of E2F-2 protein to pRb60. Soluble *E. coli* lysates containing the indicated GST fusion protein were incubated in the presence (lanes 2, 4, 5, 7, 8, 10, 11, 13, 14) or absence (lanes 1, 3, 6, 9, 12) of 100 nM recombinant pRb60 and immunoprecipitated with an anti-pRb monoclonal antibody. The immunoprecipitate was analyzed by SDS-PAGE and "Western" blotting with an anti-GST polyclonal antibody. The positions of each GST fusion protein in the "Western" blot is indicated along the right side. […]

B1: GST alone (other)
chain: not shown
B1: no binding (tested: 100 nM recombinant pRb60).
